The supplement of paper PMC10126150
Values marked as one replicate rest on one cluster of the flow cell; about a third of the high ones do not repeat.

Test system: ATP
Assay: switch fluorescence ratio, 500 uM ATP over buffer (Cy3 cluster intensity, sum of 5 cycles each) (fold (ratio)); higher = stronger signal-on switching upon ATP binding; sequences stand for … in TCGTCGGCAGCGTCAGATGTGTATAAGAGACAGTTTTTTTTTTTTTTTTTTTTTTTTT…TC
Settings: aptamer strand: ATP DNA aptamer (quencher-CACCTGGGGGAGTATTGCGGAGGAAGG + anchor), 100 nM annealed; ATP concentration: 500 uM; one replicate
Method in brief: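 Cy3-labelled switching-strand clusters on a modified Illumina MiSeq flow-cell were annealed to 100 nM quencher-labelled ATP aptamer, imaged in selection buffer, then imaged after 15 min with 500 uM ATP at 22 °C. Five buffer/ATP cycles ran, with NaOH stripping and re-annealing between them. The fluorescence ratio is summed target-cycle over summed buffer-cycle Cy3 intensity per cluster, averaged per switch-domain sequence. Clusters outside 100-1000 RFU were excluded.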
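Also: ATP exposure 15 min at 22 °C before imaging.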

Sequence: CCCCGCTCCA
- switch fluorescence ratio: 4.07

Sequence: CCTGAGCGTA
- switch fluorescence ratio: 1.15

Sequence: GATCGTTCT
- switch fluorescence ratio: 1.03

Sequence: AGATACCC
- switch fluorescence ratio: 1.04

Sequence: TTGGTGCTAT
- switch fluorescence ratio: 0.958

Sequence: GACCAAAAGA
- switch fluorescence ratio: 1

Sequence: ATCAAAGTGT
- switch fluorescence ratio: 0.986

Sequence: TTTATGACAG
- switch fluorescence ratio: 0.981

Sequence: AGGATTGACT
- switch fluorescence ratio: 1.06

Sequence: GGGTCGAGCA
- switch fluorescence ratio: 1

Sequence: GAAGGGGCGG
- switch fluorescence ratio: 0.975

Sequence: TATCAGAT
- switch fluorescence ratio: 0.979

Sequence: CTGTGTACAC
- switch fluorescence ratio: 0.965

Sequence: TACAGCGGGA
- switch fluorescence ratio: 1.04

Sequence: GGCGTACTAG
- switch fluorescence ratio: 1.03

Sequence: TCTTGGCGCA
- switch fluorescence ratio: 1.04

Sequence: ATCATACGAC
- switch fluorescence ratio: 1.23

Sequence: CGTAATGGCT
- switch fluorescence ratio: 1.02

Sequence: GGGAGACTGG
- switch fluorescence ratio: 0.961

Sequence: TGTTGTCACA
- switch fluorescence ratio: 1.01

Sequence: GTTCAATGG
- switch fluorescence ratio: 1.04

Sequence: CTTATGCCTG
- switch fluorescence ratio: 0.993

Sequence: AGTTGGCTT
- switch fluorescence ratio: 1.02

Sequence: CGGCTGAGTA
- switch fluorescence ratio: 1.02

Sequence: CGGCGAAAT
- switch fluorescence ratio: 0.991

Sequence: TGGTTCCGGT
- switch fluorescence ratio: 0.999

Sequence: ATGCTTGTTG
- switch fluorescence ratio: 1

Sequence: ATCGCATGTG
- switch fluorescence ratio: 0.982

Sequence: GACTGACGTC
- switch fluorescence ratio: 1.07

Sequence: CCGAGCTGGT
- switch fluorescence ratio: 2.38

Sequence: AGTGTGGCTG
- switch fluorescence ratio: 1.01

Sequence: AGCATGTTTT
- switch fluorescence ratio: 1.01

Sequence: CCATCTTGGC
- switch fluorescence ratio: 0.974

Sequence: TCTCTCCAAT
- switch fluorescence ratio: 1.72

Sequence: GGAGACCGAG
- switch fluorescence ratio: 0.945

Sequence: GTTTGGACGG
- switch fluorescence ratio: 0.965

Sequence: AAGCTACGTC
- switch fluorescence ratio: 1.05

Sequence: CGCTGGCATT
- switch fluorescence ratio: 1.12

Sequence: AGGCTTACAT
- switch fluorescence ratio: 0.958

Sequence: AACACAGGGG
- switch fluorescence ratio: 1.93

Sequence: TTGATAGCGA
- switch fluorescence ratio: 1.81

Sequence: AATTGGCAGC
- switch fluorescence ratio: 0.972

Sequence: AAGGATTTGC
- switch fluorescence ratio: 1.06

Sequence: GGGATGTTTC
- switch fluorescence ratio: 1.04

Sequence: CTTTTTCCGA
- switch fluorescence ratio: 1.05

Sequence: GACATCTCAG
- switch fluorescence ratio: 1.02

Sequence: TGGGATGAGA
- switch fluorescence ratio: 1.01

Sequence: CATTGGCTGG
- switch fluorescence ratio: 0.968

Sequence: TTTCTTCTCG
- switch fluorescence ratio: 1

Sequence: ACCATTTAC
- switch fluorescence ratio: 1.16

Sequence: ATACTAGTTC
- switch fluorescence ratio: 0.972

Sequence: CTGCGACAAA
- switch fluorescence ratio: 1.03

Sequence: TTTCCACACT
- switch fluorescence ratio: 1.01

Sequence: CTGTTACGAA
- switch fluorescence ratio: 1.03

Sequence: CCTGAAATAA
- switch fluorescence ratio: 1.17

Sequence: AGGGGAGCAT
- switch fluorescence ratio: 0.953

Sequence: TTCTGCGCTT
- switch fluorescence ratio: 1.24

Sequence: TCGGTTCGCG
- switch fluorescence ratio: 1.04

Sequence: ATTTACCGAG
- switch fluorescence ratio: 1.12

Sequence: CCGACGAGTC
- switch fluorescence ratio: 2.35

Sequence: TGAGTCAAGG
- switch fluorescence ratio: 0.973

Sequence: ATCTATATGT
- switch fluorescence ratio: 1

Sequence: TTAGTAATCA
- switch fluorescence ratio: 1.02

Sequence: AGCATTGGTG
- switch fluorescence ratio: 1.03

Sequence: TGATTGCATG
- switch fluorescence ratio: 0.98

Sequence: ACAAAACCGT
- switch fluorescence ratio: 1.14

Sequence: AGGCTGGGTA
- switch fluorescence ratio: 1

Sequence: CTTGTGGGTC
- switch fluorescence ratio: 1.02

Sequence: GGGAATTGAC
- switch fluorescence ratio: 1.02

Sequence: TGATCATGAT
- switch fluorescence ratio: 1.03

Sequence: CAGACTGATA
- switch fluorescence ratio: 1.02

Sequence: AGGAATTAAA
- switch fluorescence ratio: 1.05

Sequence: TAGAAAGATG
- switch fluorescence ratio: 1

Sequence: TTGCCCTGGC
- switch fluorescence ratio: 1.04

Sequence: CATTAGTA
- switch fluorescence ratio: 1

Sequence: TTCTATTCTC
- switch fluorescence ratio: 0.97

Sequence: TTATTGCCGT
- switch fluorescence ratio: 1.01

Sequence: GGCGTGGTTA
- switch fluorescence ratio: 1.01

Sequence: GCCCATTAAT
- switch fluorescence ratio: 1.02

Sequence: CCACGCGCGA
- switch fluorescence ratio: 2.55

Sequence: AGTATCTTAG
- switch fluorescence ratio: 1.01

Sequence: TTAGACTCT
- switch fluorescence ratio: 1.02

Sequence: ATCCGAGAGT
- switch fluorescence ratio: 0.978

Sequence: ATGTGGATAT
- switch fluorescence ratio: 1.04

Sequence: GGGGACGGCC
- switch fluorescence ratio: 0.901

Sequence: CGATGGTAA
- switch fluorescence ratio: 0.99

Sequence: AGTCGCAACA
- switch fluorescence ratio: 1.06

Sequence: TTTCCAGGCT
- switch fluorescence ratio: 0.897

Sequence: AGCGATCTAT
- switch fluorescence ratio: 1.01

Sequence: ACCCGGGGGA
- switch fluorescence ratio: 0.991

Sequence: GGACGCGCTC
- switch fluorescence ratio: 1.25

Sequence: AAAGAAAATG
- switch fluorescence ratio: 1.03

Sequence: CTAGAAACGC
- switch fluorescence ratio: 0.986

Sequence: TTATTAGTAA
- switch fluorescence ratio: 0.999

Sequence: CGCAGTTTAA
- switch fluorescence ratio: 1.14

Sequence: TCCTAAGCAC
- switch fluorescence ratio: 2.81

Sequence: CACTTCAGGT
- switch fluorescence ratio: 1.07

Sequence: ACGAAAGTTT
- switch fluorescence ratio: 1.04

Sequence: TACCCGTGGG
- switch fluorescence ratio: 1.02

Sequence: GGTTTTGGAG
- switch fluorescence ratio: 1.01

Sequence: GACAAAGGAG
- switch fluorescence ratio: 0.973

Sequence: GCGAAAGTCA
- switch fluorescence ratio: 1.03

Sequence: CAGTTTGGCA
- switch fluorescence ratio: 1.02

Sequence: GGACCCTATA
- switch fluorescence ratio: 1.1

Sequence: CGCGGCGCCA
- switch fluorescence ratio: 1.03

Sequence: GAGAGCCAAG
- switch fluorescence ratio: 0.972

Sequence: GGGATTTAAC
- switch fluorescence ratio: 1.03

Sequence: GGGGGCTTTA
- switch fluorescence ratio: 0.988

Sequence: GTACAAAGAC
- switch fluorescence ratio: 0.98

Sequence: GCTAAGAGGG
- switch fluorescence ratio: 1.01

Sequence: GAAATATTCG
- switch fluorescence ratio: 0.992

Sequence: TTAGAATATC
- switch fluorescence ratio: 0.984

Sequence: GGCAGTGATT
- switch fluorescence ratio: 0.99

Sequence: TAAGACCCTG
- switch fluorescence ratio: 1.04

Sequence: TCGGAAACTT
- switch fluorescence ratio: 1.05

Sequence: GCACACGGGA
- switch fluorescence ratio: 1.09

Sequence: ACAAGGATTA
- switch fluorescence ratio: 1.01

Sequence: TGGTTATGAT
- switch fluorescence ratio: 0.969

Sequence: ACATGGTAAA
- switch fluorescence ratio: 0.969

Sequence: ACTTGGTGCA
- switch fluorescence ratio: 1.04

Sequence: AGACCGGGGC
- switch fluorescence ratio: 1.05

Sequence: ACTAGCCC
- switch fluorescence ratio: 1.03

Sequence: TTGGGATC
- switch fluorescence ratio: 1

Sequence: GTCATTTCGC
- switch fluorescence ratio: 1

Sequence: TGAATTAGG
- switch fluorescence ratio: 0.952

Sequence: TTGCTTGTTC
- switch fluorescence ratio: 0.984

Sequence: TTTACTGTGT
- switch fluorescence ratio: 0.93

Sequence: ATAAAAGGGA
- switch fluorescence ratio: 0.965

Sequence: CAGGTTCTTT
- switch fluorescence ratio: 0.994

Sequence: CAAAGTCGCT
- switch fluorescence ratio: 1.04

Sequence: GAGAGGGTTC
- switch fluorescence ratio: 1.05

Sequence: GCAGTATTCG
- switch fluorescence ratio: 1.06

Sequence: ATACGAGAGG
- switch fluorescence ratio: 1.05

Sequence: CATTCGAGCC
- switch fluorescence ratio: 1.01

Sequence: TTTGTGAGAT
- switch fluorescence ratio: 1.01

Sequence: CCGGCACTCA
- switch fluorescence ratio: 1.43

Sequence: AGGGGTTGAA
- switch fluorescence ratio: 1.05

Sequence: CGCACTAGGC
- switch fluorescence ratio: 1.27

Sequence: AAATAAAAGG
- switch fluorescence ratio: 1

Sequence: CTATGGGAGA
- switch fluorescence ratio: 0.997

Sequence: GACACTGATA
- switch fluorescence ratio: 1.07

Sequence: GATTTCGGTT
- switch fluorescence ratio: 1.01

Sequence: GCAATTTGGC
- switch fluorescence ratio: 1.07

Sequence: ATCTCCGAGG
- switch fluorescence ratio: 1.14

Sequence: CGTGTCACCG
- switch fluorescence ratio: 1

Sequence: TTTGCATGGT
- switch fluorescence ratio: 0.993

Sequence: GTTAACGGTT
- switch fluorescence ratio: 0.991

Sequence: ACTGGGCCAA
- switch fluorescence ratio: 1

Sequence: GACGACGGTG
- switch fluorescence ratio: 1

Sequence: GGGCGTTGC
- switch fluorescence ratio: 0.988

Sequence: TGGGATTTAC
- switch fluorescence ratio: 1.02

Sequence: GATTTATAAC
- switch fluorescence ratio: 0.979

Sequence: GGCCGAGGCA
- switch fluorescence ratio: 1.02

Sequence: GCCGGATTCA
- switch fluorescence ratio: 0.983

Sequence: GATCAAACTC
- switch fluorescence ratio: 0.984

Sequence: CCCGGACGAA
- switch fluorescence ratio: 1.08

Sequence: GACGTTTACC
- switch fluorescence ratio: 1.13
